The values that follow come from publication PMC4336329 (PLoS ONE, 2015).

SMILES strings stand for the structures. The whole screen tested about 310,000 compounds, of which about 14,000 (4.5%) showed an effect of 50% or more. The effect is printed as a negative number. This is one part of the list.
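Note: peak tail current of the secondary pulse compared with the same well before compound.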

For the assay, the target named is human ether-à-go-go-related gene (hERG) potassium channel (human, UniProt Q12809). Kind of assay: primary screen, population patch clamp on CHO cells stably expressing hERG.
human ether-à-go-go-related gene (hERG) potassium channel, sequence (Q12809 whole entry, looked up): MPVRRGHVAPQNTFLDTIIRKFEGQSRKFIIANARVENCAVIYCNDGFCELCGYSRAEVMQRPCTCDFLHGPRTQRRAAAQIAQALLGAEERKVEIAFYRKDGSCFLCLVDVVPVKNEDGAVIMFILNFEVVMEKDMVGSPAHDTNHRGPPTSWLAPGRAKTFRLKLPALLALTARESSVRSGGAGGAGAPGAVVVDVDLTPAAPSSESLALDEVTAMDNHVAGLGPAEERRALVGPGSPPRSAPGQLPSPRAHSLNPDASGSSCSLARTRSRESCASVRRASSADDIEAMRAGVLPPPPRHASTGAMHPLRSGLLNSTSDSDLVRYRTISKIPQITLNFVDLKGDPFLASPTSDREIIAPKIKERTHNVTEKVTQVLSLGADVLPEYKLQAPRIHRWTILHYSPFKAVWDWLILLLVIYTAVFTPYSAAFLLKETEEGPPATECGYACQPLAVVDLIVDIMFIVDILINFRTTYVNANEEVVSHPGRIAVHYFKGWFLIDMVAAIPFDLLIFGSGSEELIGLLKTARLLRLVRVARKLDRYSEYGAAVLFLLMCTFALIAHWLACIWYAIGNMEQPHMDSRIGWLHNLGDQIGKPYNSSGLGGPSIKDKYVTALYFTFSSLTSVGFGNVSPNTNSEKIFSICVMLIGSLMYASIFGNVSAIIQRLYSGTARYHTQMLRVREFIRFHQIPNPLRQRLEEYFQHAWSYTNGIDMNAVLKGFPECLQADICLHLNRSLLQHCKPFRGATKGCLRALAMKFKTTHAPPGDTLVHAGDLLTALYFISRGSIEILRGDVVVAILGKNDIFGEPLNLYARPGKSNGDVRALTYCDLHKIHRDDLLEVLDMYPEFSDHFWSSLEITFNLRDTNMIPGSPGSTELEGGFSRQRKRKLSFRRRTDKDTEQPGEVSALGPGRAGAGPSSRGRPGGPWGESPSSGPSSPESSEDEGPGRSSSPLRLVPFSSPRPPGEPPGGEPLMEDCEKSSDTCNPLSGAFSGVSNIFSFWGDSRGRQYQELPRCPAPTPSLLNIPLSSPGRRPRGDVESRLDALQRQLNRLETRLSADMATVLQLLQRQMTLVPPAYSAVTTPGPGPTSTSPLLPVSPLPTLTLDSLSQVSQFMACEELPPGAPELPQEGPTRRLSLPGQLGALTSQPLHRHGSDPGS
`NC(=O)C1CCN(C(=O)COc2ccc3c(c2)oc(=O)c2ccccc23)CC1`: the “hERG current change (%, negative = inhibition) at 10uM” value turned out to be 3.62%. In the case of `CCN1CCN(Cc2ccc(NC(=O)c3cc(NC(=O)c4cc(C)on4)cc(OC)c3)cc2C(F)(F)F)CC1.O=C(O)C(F)(F)F` it was -28.7%; in that of `Cc1cccc(Cc2cnc(NC(=O)CN3C(=O)/C(=C/c4ccccc4)SC3=S)s2)c1`, 14.1%.

As for `CCOC(=O)c1nn(-c2ccccc2)c(=O)cc1SC(C)C`, the “hERG current change (%, negative = inhibition) at 10uM” value was -19.1%. As for `Cc1ccc(NC(=O)c2ccccc2NS(=O)(=O)c2ccc(F)cc2)cc1S(=O)(=O)N1CCCCC1`, the figure is 3.17%; as for `CCOCCCNS(=O)(=O)c1cc2[nH]c3c(c2cc1C)C(=O)CC(C)(C)C3`, -6.44%; as for `Cc1cc(C)c(C#N)c(SCC(O)COc2ccc(Br)cc2)n1` (centres unmarked), 15.8%.

In the case of `Cc1sc(NC(=O)c2cccc(N3C(=O)CCC3=O)c2)nc1-c1ccccc1`, the “hERG current change (%, negative = inhibition) at 10uM” value was determined as 0.991%. As for `O=C(N=Nc1c(O)[nH]c2ccccc12)c1ccc(CN2CCOCC2)cc1`, the figure is 22.9%.

As for `CCc1ccc(-n2c(=O)c3c(C)c(C(=O)N(C)C)sc3n(CC(=O)NCc3ccco3)c2=O)cc1`, the “hERG current change (%, negative = inhibition) at 10uM” value is on record as -5.72%. In the case of `CC(=O)c1cccc(NC(=O)C(C)OC(=O)Cc2n[nH]c(=O)c3ccccc23)c1` (centres unmarked) it was 0.813%; in that of `CCc1c(C)sc(NC(=O)c2noc(C)c2[N+](=O)[O-])c1C#N`, 4.32%; in that of `COc1cccc(CN2CCNC(=O)C2CC(=O)N(C)CCc2ccccn2)c1` (centres unmarked), 1.27%.

On to `Cc1ccc(S(=O)(=O)c2cc3ccc(O)cc3oc2=O)cc1C`, for which the “hERG current change (%, negative = inhibition) at 10uM” value is 6.26%.

For the compound `CCOC(=O)c1c(C(F)(F)F)nc2ncccn12`, the “hERG current change (%, negative = inhibition) at 10uM” value is given as -0.211%. Consider `O=C(NCc1ccccn1)c1cnc2sccn2c1=O`, for which the “hERG current change (%, negative = inhibition) at 10uM” value is reported as 18.3%.

As to `N#CCCN1CCN(C2=NC(=O)C(=C3CCCCC3)S2)CC1`, the “hERG current change (%, negative = inhibition) at 10uM” value was -18%. For the compound `CC(c1ccco1)N(C(=O)c1cccc(Br)c1)c1ccccn1` (centres unmarked), the “hERG current change (%, negative = inhibition) at 10uM” value is reported as -13.4%. As for `C=CCOc1cccc(/C=C\c2nc(O)c([N+](=O)[O-])c(=O)[nH]2)c1`, the figure is 19.3%; as for `CC(=O)N/C(=C\c1ccccc1)C(=O)Nc1ccccc1C`, 4.33%; as for `Cc1ccc(C(=O)NCC(=O)OCC(=O)Nc2ccccc2C#N)s1`, 23.9%.

Consider `CCOCCCNC(=O)c1ccc(NC(C)=O)cc1`, for which the “hERG current change (%, negative = inhibition) at 10uM” value stood at 6.96%. As to `COC(=O)c1ccccc1NC(=O)Cn1nc(C(F)(F)F)c2c1CCC2`, the “hERG current change (%, negative = inhibition) at 10uM” value is -27.3%.
